Measured values taken from PubChem BioAssay AID1030 (National Center for Advancing Translational Sciences (NCATS), 2008).
The whole screen tested about 220,000 compounds, of which about 16,000 (7.3%) were called active. This list was built around the results that the source calls inconclusive (neither active nor inactive); the mix of calls is not that of the screen. The call rests on the fitted dose curve; in most records, active means well fitted inhibition curve with a large enough effect (not every such curve was filed as active); inconclusive means small, poorly fitted or top-dose-only effect, or another doubt; inactive means no such curve, though single readings can be large or run the other way. Potencies beside an inconclusive call are fits to weak or partial responses and may not hold up.

The molecules below were run against Aldehyde dehydrogenase 1A1 (Homo sapiens) (UniProt P00352) (assay: qHTS Assay for Inhibitors of Aldehyde Dehydrogenase 1 (ALDH1A1)). Conditions: Purified ALDH1A1, NADH fluorescence, propionaldehyde substrate; series mostly up to 75.3 µM.
UniProt P00352, sequence (P00352 whole entry, looked up): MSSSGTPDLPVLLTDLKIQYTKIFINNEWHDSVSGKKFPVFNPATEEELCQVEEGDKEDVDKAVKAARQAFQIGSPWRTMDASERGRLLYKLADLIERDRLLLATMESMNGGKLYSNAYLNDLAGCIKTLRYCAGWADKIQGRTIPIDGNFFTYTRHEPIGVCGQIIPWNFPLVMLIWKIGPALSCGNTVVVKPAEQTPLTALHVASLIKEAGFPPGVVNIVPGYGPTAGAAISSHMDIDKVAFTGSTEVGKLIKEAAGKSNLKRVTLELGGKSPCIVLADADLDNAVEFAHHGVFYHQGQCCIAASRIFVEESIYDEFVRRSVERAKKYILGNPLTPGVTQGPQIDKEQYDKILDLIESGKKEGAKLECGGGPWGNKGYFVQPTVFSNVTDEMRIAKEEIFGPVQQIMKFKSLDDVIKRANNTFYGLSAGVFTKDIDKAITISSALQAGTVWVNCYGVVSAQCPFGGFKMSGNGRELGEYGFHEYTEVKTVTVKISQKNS
Potency means the concentration at half of the fitted maximal effect; tags describe the fitted curve by direction and shape.

Potency, inconclusive:
Cc1ccccc1OCCNCC(C)O (stereo not given) 22.4 µM [inhibitor, single point]
O=C(CCCNS(=O)(=O)c1cccc2nsnc12)NCc1ccc(Cl)cc1 25.1 µM [inhibitor, partial curve]
O=C(Cc1ccc([N+](=O)[O-])cc1)Nc1cccnc1 39.8 µM [inhibitor, single point]
CCN1CCN(Cc2c(O)ccc3c(=O)c(-c4ccc(OC)c(OC)c4)c(C)oc23)CC1 28.2 µM [inhibitor, partial curve]
CCCCC(=O)Nc1ccc(C(=O)NNC(=S)NC(=O)c2ccccc2[N+](=O)[O-])cc1 39.8 µM [inhibitor, single point]
COC(=O)c1sc2nc(N3CCCCC3)c3c(c2c1N)CCCC3 3.55 µM [inhibitor, full curve]
Cc1ccc(-c2csc(/C(C#N)=C(\O)CCl)n2)cc1 39.8 µM [inhibitor, single point]
O=C(O)CC1CCC(=C(Cl)Cl)C1 (stereo not given) 39.8 µM [inhibitor, single point]
COc1cccc(N2CC(O)=C(c3ccccc3)C2=N)c1 39.8 µM [inhibitor, single point]
COc1ccc(NC(=O)c2ccco2)cc1NC(=O)c1ccc(Br)o1 22.4 µM [inhibitor, single point]
FC(F)(F)c1cccc(N2Cc3ccccc3C2)c1 23.8 µM [inhibitor, single point]
CCC(C)n1c(-c2cc(OC)c(OC)c(OC)c2)nc2nc3ccccc3nc21 (stereo not given) 39.8 µM [inhibitor, single point]
CCn1c(Cc2c(C)[nH]c3ccccc23)n[nH]c1=S 44.7 µM [inhibitor, single point]

Potency, inactive:
CC(=O)N1CCN(c2ccc([N+](=O)[O-])cc2)CC1
COC(=O)c1ccc(CN2C(=O)c3ccccc3S2(=O)=O)cc1
CCCc1cc(=O)[nH]c(SCC(=O)c2cc(C)n(C3CC3)c2C)n1
Cc1nc(SCC(=O)NCCc2ccccc2)nc(C)c1C
COc1ccc(CC2(CO)CCN(Cc3cccnc3)CC2)cc1
CCOC(=O)c1cn2nc(-c3ccc(OCC)cc3)cc2nc1C1CCN(C(=O)OC(C)(C)C)CC1

Potency, active:
CCc1ccc(S(=O)(=O)/N=C2/C=C(Sc3ncn[nH]3)C(=O)c3ccccc32)cc1 5.01 µM
